{"sequences": {"note": "Amino acid sequences for entries named in this document (tags omitted). A change or cut given only in a name is not applied to a line headed by its entry. Residues count along the entry.", "UniProt O94776": "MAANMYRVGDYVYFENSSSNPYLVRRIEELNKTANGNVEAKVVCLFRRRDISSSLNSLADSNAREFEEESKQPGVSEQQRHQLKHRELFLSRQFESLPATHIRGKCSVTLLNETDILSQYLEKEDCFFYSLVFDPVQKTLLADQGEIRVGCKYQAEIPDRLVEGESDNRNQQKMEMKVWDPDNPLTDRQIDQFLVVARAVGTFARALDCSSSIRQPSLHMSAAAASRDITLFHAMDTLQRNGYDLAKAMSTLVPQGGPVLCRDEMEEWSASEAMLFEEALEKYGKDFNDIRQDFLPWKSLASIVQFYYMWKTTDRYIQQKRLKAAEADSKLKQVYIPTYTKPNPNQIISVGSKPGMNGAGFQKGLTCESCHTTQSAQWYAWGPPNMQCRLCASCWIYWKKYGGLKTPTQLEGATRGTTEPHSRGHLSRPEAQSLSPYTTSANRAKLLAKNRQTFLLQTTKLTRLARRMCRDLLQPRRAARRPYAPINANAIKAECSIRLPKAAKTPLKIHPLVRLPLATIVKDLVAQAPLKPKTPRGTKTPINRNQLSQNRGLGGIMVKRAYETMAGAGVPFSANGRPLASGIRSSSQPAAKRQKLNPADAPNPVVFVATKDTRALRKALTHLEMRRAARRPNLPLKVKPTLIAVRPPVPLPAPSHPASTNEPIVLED", "UniProt Q13330": "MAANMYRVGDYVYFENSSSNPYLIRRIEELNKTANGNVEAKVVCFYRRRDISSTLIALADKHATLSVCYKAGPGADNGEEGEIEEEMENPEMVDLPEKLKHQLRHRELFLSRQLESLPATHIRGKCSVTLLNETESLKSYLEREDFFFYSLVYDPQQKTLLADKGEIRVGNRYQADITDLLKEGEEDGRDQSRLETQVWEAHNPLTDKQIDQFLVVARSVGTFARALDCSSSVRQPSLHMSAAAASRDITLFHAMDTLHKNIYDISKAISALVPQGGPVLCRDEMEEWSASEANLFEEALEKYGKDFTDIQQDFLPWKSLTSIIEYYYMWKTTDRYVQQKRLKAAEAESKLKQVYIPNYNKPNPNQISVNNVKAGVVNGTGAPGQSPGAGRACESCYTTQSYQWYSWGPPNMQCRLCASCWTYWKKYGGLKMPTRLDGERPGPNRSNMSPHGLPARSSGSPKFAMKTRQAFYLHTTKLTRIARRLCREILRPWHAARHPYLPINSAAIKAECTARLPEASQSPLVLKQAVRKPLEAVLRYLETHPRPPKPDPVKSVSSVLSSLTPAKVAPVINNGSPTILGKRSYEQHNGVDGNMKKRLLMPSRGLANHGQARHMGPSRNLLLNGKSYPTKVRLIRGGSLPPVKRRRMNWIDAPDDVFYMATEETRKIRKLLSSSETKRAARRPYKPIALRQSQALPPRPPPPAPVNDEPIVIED", "Flag-MTA1(1–460), expressed in 293T cells": "residues 1-460 of Q13330", "UniProt Q14839": "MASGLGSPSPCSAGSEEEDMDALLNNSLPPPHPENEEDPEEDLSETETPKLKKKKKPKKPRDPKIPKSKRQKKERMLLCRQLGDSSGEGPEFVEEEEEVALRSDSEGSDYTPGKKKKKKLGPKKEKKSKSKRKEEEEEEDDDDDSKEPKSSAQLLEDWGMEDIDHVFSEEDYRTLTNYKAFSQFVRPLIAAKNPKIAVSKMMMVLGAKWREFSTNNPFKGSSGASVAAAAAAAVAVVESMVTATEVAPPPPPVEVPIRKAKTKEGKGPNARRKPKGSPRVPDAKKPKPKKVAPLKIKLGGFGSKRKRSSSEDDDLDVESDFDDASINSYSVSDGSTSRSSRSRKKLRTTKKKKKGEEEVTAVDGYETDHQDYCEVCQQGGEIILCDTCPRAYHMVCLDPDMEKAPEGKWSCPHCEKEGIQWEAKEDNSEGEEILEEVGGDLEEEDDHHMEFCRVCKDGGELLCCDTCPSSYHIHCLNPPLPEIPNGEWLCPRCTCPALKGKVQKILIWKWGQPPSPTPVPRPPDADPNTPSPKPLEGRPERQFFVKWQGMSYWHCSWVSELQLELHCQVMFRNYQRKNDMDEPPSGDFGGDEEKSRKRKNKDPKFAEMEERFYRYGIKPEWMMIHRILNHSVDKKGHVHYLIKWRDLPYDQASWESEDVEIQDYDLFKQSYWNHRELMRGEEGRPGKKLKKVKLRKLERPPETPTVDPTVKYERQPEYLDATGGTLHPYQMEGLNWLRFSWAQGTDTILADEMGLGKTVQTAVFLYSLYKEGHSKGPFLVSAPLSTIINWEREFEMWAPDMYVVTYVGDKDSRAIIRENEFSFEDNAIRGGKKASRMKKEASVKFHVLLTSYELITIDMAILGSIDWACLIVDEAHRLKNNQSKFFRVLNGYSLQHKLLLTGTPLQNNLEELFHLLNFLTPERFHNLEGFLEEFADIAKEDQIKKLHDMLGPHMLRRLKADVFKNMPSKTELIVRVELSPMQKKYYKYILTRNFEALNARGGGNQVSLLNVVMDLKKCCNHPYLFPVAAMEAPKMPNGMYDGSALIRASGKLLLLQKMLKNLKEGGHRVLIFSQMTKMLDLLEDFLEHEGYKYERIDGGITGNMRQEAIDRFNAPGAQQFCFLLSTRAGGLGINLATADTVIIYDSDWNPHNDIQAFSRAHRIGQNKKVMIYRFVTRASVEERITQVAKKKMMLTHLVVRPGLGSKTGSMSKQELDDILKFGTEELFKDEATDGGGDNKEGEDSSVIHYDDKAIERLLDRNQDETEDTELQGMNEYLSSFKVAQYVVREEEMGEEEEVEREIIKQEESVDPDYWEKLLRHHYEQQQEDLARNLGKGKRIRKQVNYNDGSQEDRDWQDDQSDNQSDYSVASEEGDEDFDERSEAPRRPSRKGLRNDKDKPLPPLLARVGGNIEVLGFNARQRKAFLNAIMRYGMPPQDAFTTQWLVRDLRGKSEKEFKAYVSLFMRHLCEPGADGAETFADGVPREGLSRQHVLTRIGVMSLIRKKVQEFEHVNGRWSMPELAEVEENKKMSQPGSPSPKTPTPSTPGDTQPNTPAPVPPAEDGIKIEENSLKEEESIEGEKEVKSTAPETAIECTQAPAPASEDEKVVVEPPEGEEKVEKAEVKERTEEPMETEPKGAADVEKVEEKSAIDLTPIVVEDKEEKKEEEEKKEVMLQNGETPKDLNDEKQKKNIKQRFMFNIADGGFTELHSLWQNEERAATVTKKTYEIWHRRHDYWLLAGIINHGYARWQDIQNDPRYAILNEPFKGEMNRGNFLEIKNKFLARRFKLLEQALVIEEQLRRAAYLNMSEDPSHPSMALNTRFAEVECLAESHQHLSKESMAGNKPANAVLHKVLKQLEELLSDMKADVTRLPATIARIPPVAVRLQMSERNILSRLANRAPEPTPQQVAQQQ", "UniProt Q13547": "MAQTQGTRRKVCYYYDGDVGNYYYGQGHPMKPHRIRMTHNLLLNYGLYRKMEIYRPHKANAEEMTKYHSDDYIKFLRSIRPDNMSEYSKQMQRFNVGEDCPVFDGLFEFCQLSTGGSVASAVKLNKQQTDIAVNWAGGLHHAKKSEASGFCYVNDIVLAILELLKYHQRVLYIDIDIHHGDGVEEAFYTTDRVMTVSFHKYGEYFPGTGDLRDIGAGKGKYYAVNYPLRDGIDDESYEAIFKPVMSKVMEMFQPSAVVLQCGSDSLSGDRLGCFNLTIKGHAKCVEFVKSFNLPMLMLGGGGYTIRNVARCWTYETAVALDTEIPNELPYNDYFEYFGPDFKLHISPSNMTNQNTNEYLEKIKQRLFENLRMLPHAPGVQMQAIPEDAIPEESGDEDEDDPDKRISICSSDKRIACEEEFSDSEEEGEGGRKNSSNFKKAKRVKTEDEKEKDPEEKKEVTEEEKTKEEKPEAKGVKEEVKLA", "UniProt Q92769": "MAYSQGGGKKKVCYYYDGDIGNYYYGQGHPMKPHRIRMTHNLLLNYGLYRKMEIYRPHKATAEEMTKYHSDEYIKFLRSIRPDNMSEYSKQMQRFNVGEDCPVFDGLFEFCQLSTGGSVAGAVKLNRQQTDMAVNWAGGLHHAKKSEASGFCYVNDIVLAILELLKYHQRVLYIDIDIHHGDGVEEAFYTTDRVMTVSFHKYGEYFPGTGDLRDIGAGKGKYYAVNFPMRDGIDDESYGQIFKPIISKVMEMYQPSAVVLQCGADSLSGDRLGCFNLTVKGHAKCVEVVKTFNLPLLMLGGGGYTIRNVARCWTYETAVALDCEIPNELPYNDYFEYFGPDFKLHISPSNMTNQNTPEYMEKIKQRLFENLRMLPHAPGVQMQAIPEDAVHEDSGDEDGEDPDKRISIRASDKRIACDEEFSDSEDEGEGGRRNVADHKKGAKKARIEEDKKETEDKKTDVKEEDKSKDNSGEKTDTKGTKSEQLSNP"}, "source": "paper PMC3562248", "key": {"[1]": {"molecular_target": "Flag-tagged MTA2 N-terminal region 1–434, expressed in 293T cells (UniProt O94776)", "test": "co-IP; whole cell extracts of 293T cells transfected with Flag-tagged MTA1 or MTA2 proteins, anti-Flag M2 beads, western blot for endogenous subunits"}, "[2]": {"molecular_target": "Flag-tagged MTA2 C-terminal region 427–668, expressed in 293T cells (UniProt O94776)", "test": "co-IP; whole cell extracts of 293T cells transfected with Flag-tagged MTA1 or MTA2 proteins, anti-Flag M2 beads, western blot for endogenous subunits"}, "[3]": {"molecular_target": "Flag-tagged full-length MTA2, expressed in 293T cells (UniProt O94776)", "test": "co-IP; whole cell extracts of 293T cells transfected with Flag-tagged MTA1 or MTA2 proteins, anti-Flag M2 beads, western blot for endogenous subunits"}, "[4]": {"molecular_target": "histone H3 N-terminal tail peptide (aa 1-21), unmodified, C-terminal biotin (UniProt P68431)", "test": "pull-down; about 1 μg biotinylated histone tail peptide on streptavidin agarose beads, about 250 μg HeLa nuclear extract, 20 mM HEPES pH 7.9, 150 mM KCl, 0.1% NP-40, 3 h at 4°C; western blot; only the target purified"}, "[5]": {"molecular_target": "histone H3 N-terminal tail peptide (aa 1-21), unmodified, C-terminal biotin (UniProt P68431)", "test": "pull-down; whole cell extracts of 293T cells expressing Flag- or GFP-tagged MTA proteins on immobilised H3 tail peptide; western blot; only the target purified"}, "[6]": {"molecular_target": "Flag-MTA1(1–460), expressed in 293T cells (UniProt Q13330)", "test": "co-IP; whole cell extracts of 293T cells transfected with Flag-tagged MTA1 or MTA2 proteins, anti-Flag M2 beads, western blot for endogenous subunits"}, "[7]": {"molecular_target": "Flag-MTA1 full length, expressed in 293T cells (UniProt Q13330)", "test": "co-IP; whole cell extracts of 293T cells transfected with Flag-tagged MTA1 or MTA2 proteins, anti-Flag M2 beads, western blot for endogenous subunits"}, "[8]": {"molecular_target": "Flag-MTA1(454–715), expressed in 293T cells (UniProt Q13330)", "test": "co-IP; whole cell extracts of 293T cells transfected with Flag-tagged MTA1 or MTA2 proteins, anti-Flag M2 beads, western blot for endogenous subunits"}, "[9]": {"molecular_target": "histone H3 N-terminal tail peptide (aa 1-21), unmodified, C-terminal biotin (UniProt P68431)", "test": "pull-down; 35S-methionine-labelled in vitro translated protein (TNT reticulocyte lysate, diluted 1:10 with binding buffer) on immobilised H3 tail peptides; autoradiography; only the target purified"}, "[10]": {"molecular_target": "H3K9 methylated histone H3 tail peptide (aa 1-21), degree of methylation not stated (UniProt P68431)", "test": "pull-down; 35S-methionine-labelled in vitro translated protein (TNT reticulocyte lysate, diluted 1:10 with binding buffer) on immobilised H3 tail peptides; autoradiography; only the target purified"}, "[11]": {"molecular_target": "acetylated histone H3 tail peptide (aa 1-21) (UniProt P68431)", "test": "pull-down; 35S-methionine-labelled in vitro translated protein (TNT reticulocyte lysate, diluted 1:10 with binding buffer) on immobilised H3 tail peptides; autoradiography; only the target purified"}}, "note": "No constants are given. Whether binding was seen depends on the method and setting. In cells and extracts the contact can be indirect. Some entries that bind do so weakly or less than the wild type.", "data": [{"substance": "CHD4 (endogenous, 293T) (from UniProt Q14839 1-1912)", "values": [{"measurement": "binding", "setting": "[1]", "result": "binds"}, {"measurement": "binding", "setting": "[2]", "result": "no binding"}, {"measurement": "binding", "setting": "[3]", "result": "binds"}]}, {"substance": "CoREST (endogenous, HeLa) (from UniProt Q9UKL0 1-485)", "values": [{"measurement": "binding", "setting": "[4]", "result": "no binding"}]}, {"substance": "Flag-tagged MTA2 C-terminal region 427–668, expressed in 293T cells (from UniProt O94776 427-668) (domain or fragment)", "values": [{"measurement": "binding", "setting": "[5]", "result": "binds"}]}, {"substance": "Flag-tagged MTA2 N-terminal region 1–434, expressed in 293T cells (from UniProt O94776 1-434) (domain or fragment)", "values": [{"measurement": "binding", "setting": "[5]", "result": "no binding"}]}, {"substance": "GFP-MTA1(454–715), expressed in 293T cells (from UniProt Q13330 454-715) (domain or fragment)", "values": [{"measurement": "binding", "setting": "[5]", "result": "binds"}]}, {"substance": "HDAC1 (endogenous, 293T) (from UniProt Q13547 1-482) (enzyme)", "values": [{"measurement": "binding", "setting": "[1]", "result": "binds"}, {"measurement": "binding", "setting": "[2]", "result": "no binding"}, {"measurement": "binding", "setting": "[6]", "result": "binds"}, {"measurement": "binding", "setting": "[3]", "result": "binds"}, {"measurement": "binding", "setting": "[7]", "result": "binds"}, {"measurement": "binding", "setting": "[8]", "result": "no binding"}]}, {"substance": "HDAC2 (endogenous, 293T) (from UniProt Q92769 1-488) (enzyme)", "values": [{"measurement": "binding", "setting": "[1]", "result": "binds"}, {"measurement": "binding", "setting": "[2]", "result": "no binding"}, {"measurement": "binding", "setting": "[6]", "result": "binds"}, {"measurement": "binding", "setting": "[7]", "result": "binds"}, {"measurement": "binding", "setting": "[8]", "result": "no binding"}]}, {"substance": "MTA1(454–715), in vitro translated (from UniProt Q13330 454-715) (domain or fragment)", "values": [{"measurement": "binding", "setting": "[9]", "result": "binds"}, {"measurement": "binding", "setting": "[10]", "result": "binds"}, {"measurement": "binding", "setting": "[11]", "result": "binds"}]}, {"substance": "MTA2 C-terminal fragment (427–668), in vitro translated (from UniProt O94776 427-668) (domain or fragment)", "values": [{"measurement": "binding", "setting": "[9]", "result": "binds"}]}, {"substance": "MTA2 N-terminal fragment (1–434), in vitro translated (from UniProt O94776 1-434) (domain or fragment)", "values": [{"measurement": "binding", "setting": "[9]", "result": "no binding"}]}, {"substance": "NCoR (endogenous, HeLa) (from UniProt O75376 1-2440)", "values": [{"measurement": "binding", "setting": "[4]", "result": "no binding"}]}]}
